This passage reports cAMP reporter score and surface expression score results from the GPR68 mutational scans of Howard et al. (2025).

Scores whose standard error is large were omitted. The source holds two more conditions with little spread; they are left out. In variant names, del marks residues removed and ins residues inserted between the two positions. For some assays here: How much ogerin was present is not stated here.

B1: GPR68, Q15743 (parent)
chain: MGNITADNSSMSCTIDHTIHQTLAPVVYVTVLVVGFPANCLSLYFGYLQIKARNELGVYLCNLTVADLFYICSLPFWLQYVLQHDNWSHGDLSCQVCGILLYENIYISVGFLCCISVDRYLAVAHPFRFHQFRTLKAAVGVSVVIWAKELLTSIYFLMHEEVIEDENQHRVCFEHYPIQAWQRAINYYRFLVGFLFPICLLLASYQGILRAVRRSHGTQKSRKDQIQRLVLSTVVIFLACFLPYHVLLLVRSVWEASCDFAKGVFNAYHFSLLLTSFNCVADPVLYCFVSETTHRDLARLRGACLAFLTCSRTGRAREAYPLGAPEASGKSGAQGEEPELLTKLHPAFQTPNSPGSGGFPTGRLA

Variants of B1 are the subject of data set [1]. In words: cAMP reporter score (Enrich2 score, wild type = 0); higher = more signal; HEK293T, FACS bins.
The variants in data set [2] derive from B1. In words: surface expression score (Enrich2 score, wild type = 0); higher = more signal; HEK293T, FACS bins.

For the variant R222H, the cAMP reporter score was 0.223 in data set [1] (pH 5.5); 1.7 in data set [1] (pH 6); 0.948 in data set [1] (pH 6, modulator: ogerin); 3.2 in data set [1] (pH 6.5, modulator: ogerin). The surface expression score in data set [2] came out at 0.966.

As for R222P, the cAMP reporter score was -1.39 in data set [1] (pH 5.5); -0.088 in data set [1] (pH 6); -1.72 in data set [1] (pH 6, modulator: ogerin); -0.686 in data set [1] (pH 6.5, modulator: ogerin). Besides, in data set [2], the surface expression score was 0.144.

R222I: the cAMP reporter score in data set [1] (pH 5.5) came out at 1.4; in data set [1] (pH 6), 2.61; in data set [1] (pH 6, modulator: ogerin), 0.49.

Consider R222T, for which the cAMP reporter score was 0.341 in data set [1] (pH 5.5); 0.748 in data set [1] (pH 6, modulator: ogerin); 2.82 in data set [1] (pH 6.5, modulator: ogerin). Also, in data set [2], the surface expression score is -0.576.

Turning to R222W, the cAMP reporter score was -0.641 in data set [1] (pH 5.5); -0.844 in data set [1] (pH 6); -0.875 in data set [1] (pH 6, modulator: ogerin); -1.12 in data set [1] (pH 6.5, modulator: ogerin). The surface expression score in data set [2] was -1.45.

As to R222S, the cAMP reporter score in data set [1] (pH 5.5) came out at 0.929; in data set [1] (pH 6), 0.082; in data set [1] (pH 6, modulator: ogerin), 1.78; in data set [1] (pH 6.5, modulator: ogerin) it was 1.96. The surface expression score in data set [2] was 1.43.

Take R222Q: the cAMP reporter score in data set [1] (pH 5.5) was determined as 0.738; in data set [1] (pH 6) it was 3.47; in data set [1] (pH 6, modulator: ogerin), 1.64; in data set [1] (pH 6.5, modulator: ogerin), 4.01. Also, the surface expression score in data set [2] is 1.4.

Turning to R222A, the cAMP reporter score in data set [1] (pH 5.5) is 0.854; in data set [1] (pH 6, modulator: ogerin) it was 1.61; in data set [1] (pH 6.5, modulator: ogerin), 2.39. The surface expression score in data set [2] turned out to be 0.374.

With R222G, the cAMP reporter score is -0.834 in data set [1] (pH 5.5); 0.412 in data set [1] (pH 6); -0.493 in data set [1] (pH 6, modulator: ogerin); -1.24 in data set [1] (pH 6.5, modulator: ogerin). The surface expression score in data set [2] is -0.209.

R222F: the cAMP reporter score is 2.39 in data set [1] (pH 5.5); -0.431 in data set [1] (pH 6); 1.04 in data set [1] (pH 6, modulator: ogerin). The surface expression score in data set [2] is -0.428.

As for C199_L200insGS, the cAMP reporter score in data set [1] (pH 5.5) was -1.7; in data set [1] (pH 6), -0.372; in data set [1] (pH 6, modulator: ogerin), -1.8; in data set [1] (pH 6.5, modulator: ogerin) it was -1.5. In addition, in data set [2], the surface expression score was -1.88.

For the variant L195_F196insGSG, the cAMP reporter score in data set [1] (pH 5.5) is -1.59; in data set [1] (pH 6), -1.12; in data set [1] (pH 6, modulator: ogerin), -2.19; in data set [1] (pH 6.5, modulator: ogerin), -1.31.

As for H216_G217insGS, the cAMP reporter score in data set [1] (pH 5.5) is -1.37; in data set [1] (pH 6), -0.932; in data set [1] (pH 6, modulator: ogerin) it was -1.41; in data set [1] (pH 6.5, modulator: ogerin) it was -1.13. Further, the surface expression score in data set [2] was 0.69.

In the case of S215del, the cAMP reporter score in data set [1] (pH 5.5) was -1.73; in data set [1] (pH 6), -0.827; in data set [1] (pH 6, modulator: ogerin), -0.293; in data set [1] (pH 6.5, modulator: ogerin) it was -0.751. The surface expression score in data set [2] is 0.435.

For the variant P197del, the cAMP reporter score in data set [1] (pH 5.5) was -1.28; in data set [1] (pH 6, modulator: ogerin), -1.35; in data set [1] (pH 6.5, modulator: ogerin), -0.575. In data set [2], the surface expression score is -1.67.

Take S221R: the cAMP reporter score in data set [1] (pH 5.5) is -0.399; in data set [1] (pH 6) it was -0.204; in data set [1] (pH 6, modulator: ogerin), -0.645. Also, the surface expression score in data set [2] is -0.281.

Turning to S221G, the cAMP reporter score in data set [1] (pH 5.5) is 1.02; in data set [1] (pH 6), -0.128; in data set [1] (pH 6, modulator: ogerin), 0.759; in data set [1] (pH 6.5, modulator: ogerin), 0.871. The surface expression score in data set [2] turned out to be 1.18.

Regarding S221H, the cAMP reporter score in data set [1] (pH 5.5) is -0.494; in data set [1] (pH 6), 0.758; in data set [1] (pH 6, modulator: ogerin) it was 0.48; in data set [1] (pH 6.5, modulator: ogerin) it was -1.34. Besides, in data set [2], the surface expression score was -0.734.

As to S221F, the cAMP reporter score in data set [1] (pH 5.5) is 0.068; in data set [1] (pH 6), -0.277; in data set [1] (pH 6, modulator: ogerin) it was -0.023; in data set [1] (pH 6.5, modulator: ogerin), -0.563. Also, the surface expression score in data set [2] came to 0.197.

Regarding S221K, the cAMP reporter score in data set [1] (pH 5.5) was 0.127; in data set [1] (pH 6) it was 0.591; in data set [1] (pH 6, modulator: ogerin), 0.642; in data set [1] (pH 6.5, modulator: ogerin), 0.769. In addition, the surface expression score in data set [2] was 0.14.

As for S221Q, the cAMP reporter score in data set [1] (pH 5.5) was 0.902; in data set [1] (pH 6, modulator: ogerin), 0.454. Also, the surface expression score in data set [2] came out at 0.423.

As to S221A, the cAMP reporter score in data set [1] (pH 5.5) came out at 1.03; in data set [1] (pH 6), 0.524; in data set [1] (pH 6, modulator: ogerin), 1.23; in data set [1] (pH 6.5, modulator: ogerin) it was 0.823. In addition, in data set [2], the surface expression score amounted to 1.12.

As for S221T, the cAMP reporter score in data set [1] (pH 5.5) came out at 1.18; in data set [1] (pH 6), 0.738; in data set [1] (pH 6, modulator: ogerin), 1.37; in data set [1] (pH 6.5, modulator: ogerin) it was 0.494. Moreover, in data set [2], the surface expression score amounted to 1.47.

With S221V, the cAMP reporter score in data set [1] (pH 5.5) is -0.025; in data set [1] (pH 6), 0.055; in data set [1] (pH 6, modulator: ogerin), 0.332; in data set [1] (pH 6.5, modulator: ogerin), -0.863. Also, the surface expression score in data set [2] was 0.241.

On to S221N, for which the cAMP reporter score in data set [1] (pH 5.5) was 0.488; in data set [1] (pH 6), 0.346; in data set [1] (pH 6, modulator: ogerin) it was -0.028; in data set [1] (pH 6.5, modulator: ogerin), -0.114. Moreover, in data set [2], the surface expression score was 0.885.

In the case of S221D, the cAMP reporter score in data set [1] (pH 5.5) came to 0.659; in data set [1] (pH 6), 0.131; in data set [1] (pH 6, modulator: ogerin), 0.508; in data set [1] (pH 6.5, modulator: ogerin) it was 0.417. Moreover, in data set [2], the surface expression score was 0.977.

Turning to S221Y, the cAMP reporter score in data set [1] (pH 5.5) is 0.062; in data set [1] (pH 6) it was 0.063; in data set [1] (pH 6, modulator: ogerin), -0.053; in data set [1] (pH 6.5, modulator: ogerin), -0.184. In data set [2], the surface expression score is -0.613.

For the variant S221E, the cAMP reporter score in data set [1] (pH 5.5) came to 0.055; in data set [1] (pH 6, modulator: ogerin), 0.888; in data set [1] (pH 6.5, modulator: ogerin) it was 1.61. Besides, the surface expression score in data set [2] was 1.03.

As for S221M, the cAMP reporter score in data set [1] (pH 5.5) is -0.016; in data set [1] (pH 6), -1.32; in data set [1] (pH 6, modulator: ogerin), -0.268; in data set [1] (pH 6.5, modulator: ogerin), -1.91. Further, in data set [2], the surface expression score turned out to be 0.133.

In the case of S221P, the cAMP reporter score in data set [1] (pH 5.5) is 0.561; in data set [1] (pH 6), 0.343; in data set [1] (pH 6, modulator: ogerin), 0.104; in data set [1] (pH 6.5, modulator: ogerin), -0.356. Further, in data set [2], the surface expression score was 1.05.

With S221L, the cAMP reporter score in data set [1] (pH 5.5) is -0.552; in data set [1] (pH 6), -1.38; in data set [1] (pH 6, modulator: ogerin), -0.716; in data set [1] (pH 6.5, modulator: ogerin) it was -0.918. In addition, in data set [2], the surface expression score worked out at 0.231.

For S221I, the cAMP reporter score in data set [1] (pH 5.5) is -0.048; in data set [1] (pH 6), -0.978; in data set [1] (pH 6, modulator: ogerin), 0.033; in data set [1] (pH 6.5, modulator: ogerin), -0.493. Besides, the surface expression score in data set [2] was 0.006.
